# Screen size: about 280,000 compounds; about 100 (0.036%) were called active. Inconclusive means that the source gave no clear call. Such entries were picked first, then a sample of the others. Calls come from the whole dose curve; as a rule, active = well fitted inhibition curve with a large enough effect in the signal ratio, with a control signal flat (not every such curve was filed as active); inconclusive = small, poorly fitted or top-dose-only effect, or effect the other way, or a change in a side signal; inactive = no such curve, though single readings can be large or run the other way; the % refers to the signal ratio. Potencies of inconclusive entries are doubtful fits and often do not repeat. “Side channel” marks fits to a control or component signal instead of the main read-out.
# Molecular target: Muscleblind-like protein 1 (Homo sapiens) (UniProt Q9NR56)
# Chain of UniProt Q9NR56 (Q9NR56 whole entry, looked up): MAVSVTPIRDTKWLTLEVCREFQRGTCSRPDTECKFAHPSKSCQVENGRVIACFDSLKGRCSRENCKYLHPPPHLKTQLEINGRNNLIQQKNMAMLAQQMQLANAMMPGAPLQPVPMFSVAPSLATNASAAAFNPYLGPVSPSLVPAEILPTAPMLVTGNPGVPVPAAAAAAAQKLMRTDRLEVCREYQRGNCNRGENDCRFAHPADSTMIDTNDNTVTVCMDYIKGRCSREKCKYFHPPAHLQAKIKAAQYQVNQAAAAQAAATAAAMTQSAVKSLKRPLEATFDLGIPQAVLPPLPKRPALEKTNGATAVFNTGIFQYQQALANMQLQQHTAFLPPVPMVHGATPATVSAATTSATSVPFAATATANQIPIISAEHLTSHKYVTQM
# Test: qHTS Assay for Inhibitors of MBNL1-poly(CUG) RNA binding
# Details: TR-FRET MBNL1-His/biotin-(CUG)12 binding, 665/545 ratio; activity change, negative = inhibition: at 57.5 µM (top of the series)
# Procedure, shortened: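 TR-FRET readout: Ex 340 nm, 665/545 nm emission ratio, normalized to buffer-only (basal) and MBNL1-(CUG)12 controls. Complex of MBNL1-His with Biotin-(CUG)12, compounds 92 nM–58 uM, incubated 60 min at room temperature.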
# % is set by controls: 0 for no effect and ±100 for the full control effect; potency is the fitted concentration of half-maximal effect; tags give direction and shape of the fitted curve or compound fluorescence and quenching.
SMILES,"activity change, negative = inhibition",Potency
Cc1[nH]nc2c1C1(C(=O)Nc3ccc([N+](=O)[O-])cc31)C(C#N)=C(N)O2 (stereo not given),inactive: 25.3%,
O=[N+]([O-])c1ccc(N/N=C/c2sc(N3CCOCC3)nc2-c2ccccc2)c(S(=O)(=O)Nc2ccccc2Cl)c1,inactive: 16.5%,
CCC(C)NCCOCCOc1ccc(Cl)c2ccccc12 (stereo not given),,"inconclusive: 22.4 µM [quencher, side channel, partial curve]"
O=C(NCc1ccco1)c1cc(-c2cccnc2)nc2ccccc12,,"inconclusive: 5.01 µM [quencher, side channel, full curve]"
NC(=O)c1cnn2c(C(F)(F)F)cc(-c3ccccc3)nc12,,"inconclusive: 22.4 µM [quencher, side channel, partial curve]"
C[C@@H]1NC(=O)c2cc([N+](=O)[O-])cc(I)c2OCC[C@@H](C(N)=O)NC(=O)[C@H](CCCCN)NC1=O,,"inconclusive: 14.1 µM [quencher, side channel, partial curve]"
O=C(c1ccccc1[N+](=O)[O-])N1CCC(Cc2ccccc2)CC1,,"inconclusive: 15.8 µM [quencher, side channel, partial curve]"
CN(C)/C=C/C(=O)c1ccc2noc(-c3cccc(F)c3)c2c1,,"inconclusive: 28.2 µM [quencher, side channel, partial curve]"
Cc1nc(C)c(-c2csc(NCc3ccccc3)n2)s1,,"inconclusive: 11.2 µM [quencher, side channel, partial curve]"
COc1cc(CN2CCCCCC2)cc(OC)c1OC,inactive: -3.2%,
CCc1nnc(NC(=O)c2sc3nc(C)cc(COC)c3c2N)s1,,"inconclusive: 7.08 µM [quencher, partial curve]"
CSc1ccc(CNC(=O)C2Cc3cc(S(=O)(=O)N4CCCCC4)ccc3N2C(C)=O)cc1 (stereo not given),inactive: -1.05%,
CCN(CC)CCCNC(=O)c1csc(Nc2cccc3ccccc23)n1,,"inconclusive: 35.5 µM [quencher, side channel, partial curve, poor fit]"
COc1ccc(NC(=O)c2cc([N+](=O)[O-])ccc2NC(=O)CNCc2ccccn2)c(OC)c1,,"inconclusive: 15.8 µM [quencher, partial curve]"
CCSC1=NCCN1C(=O)Cc1ccc(-c2ccccc2)cc1,inactive: -3.31%,
Cc1nn(-c2ccccn2)c2c1C(c1c(F)cccc1Cl)C1=C(N2)c2ccccc2C1=O (stereo not given),inactive: -5.25%,
CCOC(=O)C(C)N1C(=O)S/C(=C/c2ccc3c(c2)n(C)c(=O)n3C)C1=O (stereo not given),,"inconclusive: 31.6 µM [quencher, side channel, partial curve]"
CCc1ccc(NC(=O)c2ccc(OC)c([N+](=O)[O-])c2)cc1,,"inconclusive: 3.55 µM [quencher, side channel, full curve]"
Cc1ccc2nc3c(cc(C#N)c(=N)n3CC3CCCO3)c(=O)n2c1 (stereo not given),,"inconclusive: 2.82 µM [quencher, side channel, full curve]"
S=C(NCCCN1CCOCC1)N1CCN(c2nc(-c3ccc(Cl)cc3)cs2)CC1,inactive: 22.7%,

SMILES,"activity change, negative = inhibition",Potency
Cc1nc2ccc(NC(=O)N3CCC(c4ccccc4)C3)cc2nc1C (stereo not given),,"inconclusive: 20 µM [quencher, side channel, partial curve]"
COc1ccc2oc(=Nc3ccccc3)c(-c3nc4ccccc4[nH]3)cc2c1,,"inconclusive: 17.8 µM [quencher, side channel, partial curve]"
O=C(N/N=C/c1ccccn1)c1cc(-c2ccc(Cl)cc2)nc2ccccc12,inactive: 41.1%,
COc1ccc(CNCCc2ccc([N+](=O)[O-])cc2)c(OC)c1OC,,"inconclusive: 31.6 µM [quencher, side channel, partial curve]"
NC(=O)c1nsc(C(=O)N(CC(=O)NCc2ccc(F)cc2)Cc2ccco2)c1N,,"inconclusive: 44.7 µM [quencher, side channel, single point]"
O=C(O)CCCCCNc1ncnc2ccc(Br)cc12,,"inconclusive: 15.8 µM [fluorescent, side channel, partial curve, poor fit]"
Cn1c(=S)oc2ccccc21,inactive: -12%,
Cc1ccc(NC(=O)c2ccc(Cn3cc(Br)cn3)o2)cc1,inactive: -6.19%,
Oc1oc(-c2ccccc2)nc1C=NCc1ccncc1,,"inconclusive: 2 µM [quencher, side channel, full curve, poor fit]"
O=[N+]([O-])c1ccc(-n2nnnc2-c2ccccc2)cc1,,"inconclusive: 12.6 µM [quencher, side channel, partial curve]"
O=C(O)c1ccc(/C=C2\SC(=S)N(Nc3ccccc3)C2=O)cc1,,"inconclusive: 14.1 µM [quencher, side channel, partial curve]"
N#C/C(=C/c1ccc(Sc2nc3ccccc3[nH]2)o1)c1ccccc1F,,"inconclusive: 12.6 µM [quencher, side channel, partial curve]"
O=[N+]([O-])c1cnccc1NC1CCCCC1,,"inconclusive: 14.1 µM [quencher, side channel, partial curve]"
COc1ccc(C2(CCN=Cc3ccc(N(C)C)cc3)CCOC(C)(C)C2)cc1 (stereo not given),,"inconclusive: 25.1 µM [quencher, side channel, single point]"
CC(=O)N(C)c1ccc(N=C2C(=O)Nc3ccccc32)cc1,,"inconclusive: 17.8 µM [quencher, side channel, partial curve]"
N#C/C(=N\O)c1nc2ccccc2s1,inactive: -7.29%,
CCCn1nnc(NC(=O)c2ccc3ccccc3c2)n1,,"inconclusive: 17.8 µM [quencher, side channel, partial curve]"
C1=C(c2ccccc2)CCN(c2nc3ccccc3n3cnnc23)C1,,"inconclusive: 31.6 µM [quencher, side channel, partial curve]"
O=C(Nc1nc(-c2ccc3c(c2)OCO3)cs1)c1ccncc1,,"inconclusive: 39.8 µM [quencher, side channel, single point]"
Cc1ccccc1CS(=O)(=O)c1ccc(C(=O)N2CCOCC2)cc1[N+](=O)[O-],,"inconclusive: 22.4 µM [quencher, side channel, partial curve]"
